Data as given in patent publication US8021661B2, “Cripto binding molecules” (Biogen Idec MA Inc., priority 2005, dated 2011).

B1: HuCC49 V2 PAP: CH2 domain deleted humanized CC49 version 2 containing the connecting peptide shown in SEQ ID NO: 32 (protein)
heavy (part 1 of 2): QVQLVQSGAEVVKPGASVKISCKASGYTFTDHAIHWVKQNPGQRLEWIGYFSPGNDDFKYNERFKGKATITADTSASTAYVELSSLRSEDTAVYFCARSLNMAYWGQGTLVTVSS
heavy (part 2 of 2): EPKSCDKTHTCPPCPAPGGGSSGGGSG
light: DIVMSQSPDSLAVSLGERVTLNCKSSQSLLYSGNQKNYLAWYQQKPGQPPKLLIYWASARESGVPDRFSGSGSGTDFTLTISSVQAEDVAVYYCQQYYSYPLTFGAGTKLELKRTVAAPSVFIFPPSDEQLKSGTASVVCLLNNFYPREAKVQWKVDNALQSGNSQESVTEQDSKDSTYSLSSTLTLSKADYEKHKVYACEVTHQGLSSPVTKSFNRGEC
modifications: left off: a dimerising Fc or GST
B2: Domain deleted CC49 G1/G3/Pro243Ala244Pro245+[Gly/Ser]: domain deleted CC49 with hinge connecting peptide SEQ ID NO: 5 (antibody)
heavy: QVQLVQSGAEVVKPGASVKISCKASGYTFTDHAIHWVKQNPGQRLEWIGYFSPGNDDFKYNERFKGKATLTADTSASTAYVELSSLRSEDTAVYFCTRSLNMAYWGQGTLVTVSSASTKGPSVFPLAPSSKSTSGGTAALGCLVKDYFPEPVTVSWNSGALTSGVHTFPAVLQSSGLYSLSSVVTVPSSSLGTQTYICNVNHKPSNTKVDKKVEPKSCDKTHTCPPCPEPKSCDTPPPCPRCPAPGGGSSGGGSGGQPREPQVYTLPPSRDELTKNQVSLTCLVKGFYPSDIAVEWESNGQPENNYKTTPPVLDSDGSFFLYSKLTVDKSRWQQGNVFSCSVMHEALHNHYTQKSLSLSPGK
light: B1 light with P49S

Tests used:
[1] = test system: LS-174T human tumor xenografts; assay: Biodistribution of 90Y-CHx-DTPA conjugated antibody in tumor-bearing mice; assay type: in vivo, athymic mice; conditions: for Percentage injected dose (% ID) of 90Y radiolabelled antibody per gram, Blood / Percentage injected dose (% ID) of 90Y radiolabelled antibody per gram, Kidney / Percentage injected dose (% ID) of 90Y radiolabelled antibody per gram, Liver / Percentage injected dose (% ID) of 90Y radiolabelled antibody per gram, Spleen / Percentage injected dose (% ID) of 90Y radiolabelled antibody per gram, Tumor: 7 mice/group, mean ± standard deviation
Method: Biodistribution of ^90Y-2-(p-isothiocyanatobenzyl) (p-SCN-Bz)-cyclohexyldiethylenetriaminepentaacetic acid ligand (CHx-DTPA) conjugated HuCC49 V2 PAP (containing the connecting peptide shown in SEQ ID NO: 32) and control parent HuCC49 antibody were evaluated and compared in athymic mice bearing LS-174T human tumor xenografts. Percentage injected dose (% ID) of ^90Y radiolabelled antibody per gram of tumor or normal tissue was determined at 3 and 24 hours and is shown in Table 7.

[2] = Sensitivity to glutathione (GSH) reduction, non-reducing SDS-PAGE; assay type: physicochemical
Method: Briefly, 50 ug of ddCC49 (Gly-Ser), ddCC49 G1/G3/Pro243Ala244Pro245+[Gly/Ser] (SEQ ID NO: 5) or parent CC49 were incubated with 0, 1, 5 or 10 mM GSH for one hour at room temperature. Reaction buffers used include 100 mM PBS, pH 7.2 or 100 mM Sodium Acetate, 100 mM NaCl, pH 4.5. GSH-treated antibodies were heated with SDS and applied to a 4-20% gradient SDS-PAGE, non-reducing gel. Applied samples were allowed to migrate through the gel at a constant 120 Volts for 90 minutes at room temperature. Proteins were Coomassie stained and gels dried.

Molecule | Percentage injected dose (% ID) of 90Y radiolabelled antibody per gram, Blood ([1]; 3 hrs) | Percentage injected dose (% ID) of 90Y radiolabelled antibody per gram, Kidney ([1]; 3 hrs) | Percentage injected dose (% ID) of 90Y radiolabelled antibody per gram, Liver ([1]; 3 hrs) | Percentage injected dose (% ID) of 90Y radiolabelled antibody per gram, Spleen ([1]; 3 hrs) | Percentage injected dose (% ID) of 90Y radiolabelled antibody per gram, Tumor ([1]; 3 hrs) | uptake in the kidney compared with control HuCC49 antibody ([1]; 24 hour time point, p<0.01) | uptake in the tumor compared with control HuCC49 antibody ([1]; 24 hour time point, p<0.05 unpaired t Test) | Percentage injected dose (% ID) of 90Y radiolabelled antibody per gram, Blood ([1]; 24 hrs) | Percentage injected dose (% ID) of 90Y radiolabelled antibody per gram, Kidney ([1]; 24 hrs) | Percentage injected dose (% ID) of 90Y radiolabelled antibody per gram, Liver ([1]; 24 hrs) | Percentage injected dose (% ID) of 90Y radiolabelled antibody per gram, Spleen ([1]; 24 hrs) | Percentage injected dose (% ID) of 90Y radiolabelled antibody per gram, Tumor ([1]; 24 hrs) | tumor to organ ratio compared with HuCC49 ([1]; mouse, in vivo) | stability toward glutathione (GSH) reduction ([2]; 0, 1, 5 or 10 mM GSH, one hour, room temperature, compared with domain deleted CC49 with a Gly-Ser hinge linker) | protection from GSH reduction by buffer ([2]; 100 mM Sodium Acetate at pH 4.5 compared to 100 mM PBS at pH 7.2)
B1 | 24.6 ± 3.0 % ID per gram | 10.0 ± 1.4 % ID per gram | 8.4 ± 1.0 % ID per gram | 4.6 ± 2.2 % ID per gram | 16.1 ± 5.0 % ID per gram | lower in the kidney | significantly higher in the tumor | 2.0 ± 0.6 % ID per gram | 6.7 ± 0.4 % ID per gram | 11.2 ± 2.2 % ID per gram | 7.7 ± 1.8 % ID per gram | 21.3 ± 4.8 % ID per gram | higher tumor to organ ratio for all organs except blood | – | –
B2 | – | – | – | – | – | – | – | – | – | – | – | – | – | more stable toward glutathione (GSH) reduction | further protects

Substitutions are numbered along the chain they refer to.
